In publication PMC6212790:
This is one part of the list. At the low end of the ranking, values are background and their order means little.

The sequences below were run against T1, GST-Rok-C97-191 (UniProt O34857) (assay: protein binding microarray). Details: Rok is a gene silencer of Bacillus subtilis; high values mean tight binding; most listed sequences are background and not binding sites; double strand, one strand shown.
T1 sequence: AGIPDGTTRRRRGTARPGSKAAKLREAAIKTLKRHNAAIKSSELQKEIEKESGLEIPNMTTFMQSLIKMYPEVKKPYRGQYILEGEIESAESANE
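Also: rank score from −0.5 (least bound) to 0.5 (best bound).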

Sequence | binding signal [E-score]
CCAGTCCC | -0.292
CATACTTA | 0.0391
AGCTGGGA | -0.105
AATGATTA | 0.0681
GCTTTCAA | -0.116
CTAACCTA | 0.233
CGAGCGAC | -0.11
ATCTACGG | 0.0258
CTTCTATC | 0.241
ATCCGGCA | -0.0342
GCACACGC | -0.121
AACAGAGG | -0.0648
CTCAACCA | -0.0917
TAATTCAA | 0.168
ACACGCGC | -0.245
GAGCACCA | -0.134
AAACCTAG | 0.149
CGGAGCCG | -0.226
ACCCTAAC | -0.264
CCGATCGA | -0.102
GTGATCGA | -0.128
AAATCGTG | 0.0607

Sequence | binding signal [E-score]
ACAAGATA | 0.302
ATTACGTC | 0.162
AAAAGATC | 0.0387
ATGACCCA | -0.129
GACCGACC | -0.0917
AACCTGCC | -0.234
AGGCAATA | 0.0316
ATGGCCGA | -0.0882
CGTTTTAC | -0.0888
TGTACGAA | 0.113
CATTTAGG | -0.0729
AACGCCCA | -0.278
AATCCATC | -0.0998
TATACAAA | 0.347
AAGCACAA | 0.035
CCAACGCG | -0.329
CTCGACAG | -0.196
AGGTGACG | -0.157
CAGACCTC | -0.147
CGTTTCGC | -0.171
ACCACTTG | 0.127
CCGTTACC | -0.0467

Sequence | binding signal [E-score]
GCTATTCC | -0.0878
AGGATAAC | 0.000611
AGTCCCCG | -0.217
GCGTTCGA | -0.142
CATACTAG | 0.285
GTACCGCA | 0.123
AGTACCAC | 0.0678
GGCACGAA | -0.261
CACCAATC | -0.13
GATATCAA | 0.158
AAAACCCG | 0.00714
AGCTGCAT | -0.0626
GAGAAGAA | 0.045
GTAGGCAA | 0.0486
CTGCTGAA | 0.0789
ATATGCCG | 0.0854
AGGTGCAC | -0.191
ACGCTGAT | -0.0219
CCCACTCG | -0.0304
AAACTACG | 0.387
GTAGCTAA | 0.346
GGTAGGGA | 0.0672

Sequence | binding signal [E-score]
ACCAAACA | -0.0468
AGCACTCG | -0.17
AGGCGACC | -0.134
ACGCATAA | -0.107
AACGCGCT | 0.141
AATTCTTA | 0.162
CCGGGCTA | -0.171
GCCGTGTA | -0.0117
CGAGCAAC | -0.105
ACCATAGA | 0.01
TGAAGTAA | 0.132
CTGGTGCC | -0.162
ACATAAGG | 0.0979
ATAGAGCC | -0.0348
CCTTGCGC | -0.237
CCTGACAG | -0.0267
AAAATGCG | 0.0254
GGATCTTA | 0.114
CAACGTGG | 0.0295
TGTCGACA | -0.101
